Laboratory results: PubChem BioAssay AID1508623 (National Center for Advancing Translational Sciences (NCATS), 2021)
Hit rate of the full screen: of about 48,000 compounds, about 450 (0.94%) were called active. This list was built around the results that the source calls inconclusive (neither active nor inactive); the mix of calls is not that of the screen. Calls come from the whole dose curve; as a rule, active = well fitted inhibition curve with a large enough effect; inconclusive = small, poorly fitted or top-dose-only effect; inactive = no such curve, though single readings can be large or run the other way. Where the call is inconclusive, the potency comes from a doubtful curve fit.

Test: Primary qHTS for Identification of Small Molecule Inhibitors of Huntingtin Promoter Activity; note: nearly all actives have a fitted effect of over 50% in size
Conditions: HEK293 HTT promoter firefly luciferase reporter (activity 0% = vehicle and -100% = no light), 24 h; activity change, negative = inhibition: at 57.5 µM (top of the series)
Summary of the method: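 HEK293 cells carrying firefly luciferase reporters were seeded at 2,500 per well in Opti-MEM and cultured for 24 h. They were then treated with compounds at up to 57.5 uM final for 24 h at 37 degrees C before Dual-Glo luminescence readout.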
Potency is the fitted concentration of half-maximal effect; tags give direction and shape of the fitted curve.

Compound	Potency	activity change, negative = inhibition
COc1ccc(S(=O)(=O)N2CCC(c3ccncc3)CC2)cc1Cl	inconclusive: 10 µM [inhibitor, partial curve]	
CCCCOc1c(Cl)cc(C(=O)N(Cc2ccc(C)o2)C2CCS(=O)(=O)C2)cc1Cl (stereo unspecified)	inconclusive: 39.8 µM [inhibitor, partial curve, poor fit]	
Cc1ccc(-n2nc3c(=O)n(CC(=O)Nc4ccccc4F)nc(C)c3c2C)c(C)c1	inconclusive: 17.8 µM [inhibitor, partial curve, poor fit]	
O=c1ccn([C@@H]2O[C@H](CO)[C@H](O)[C@@H]2F)c(=O)[nH]1	inconclusive: 10.9 µM [inhibitor, full curve]	
CCOC(=O)c1ccc(NC(=O)c2cc3cc(C)ccc3n2C)cc1	inconclusive: 28.2 µM [inhibitor, single point]	
Cc1cccc(N2CCN(S(=O)(=O)c3ccc4c(c3)CCCN4C(=O)C3CCC3)CC2)c1C	inconclusive: 39.8 µM [inhibitor, partial curve, poor fit]	
C[C@]12CCC(=O)C=C1CC[C@@H]1[C@@H]2[C@@H](O)C[C@@]2(C)[C@H]1CC[C@]2(O)C(=O)COC(=O)CCC(=O)O		inactive: -7.29%
O=C(Nc1cccc(Cl)c1)c1c(NC(=O)C(F)(F)F)sc2c1CCCC2	active: 1.78 µM	
Cc1ccc(C(=O)Nc2ccc(CN3CCN(C)CC3)c(C(F)(F)F)c2)cc1C#Cc1cnc2cccnn12	inconclusive: 8.63 µM [inhibitor, partial curve]	
CC(C)OCCCN(Cc1ccco1)C(=O)c1cc2c(s1)-c1ccccc1OC2	inconclusive: 39.8 µM [inhibitor, single point]	
CCN(CC)C(=O)Cn1cc(SCC(=O)Nc2cccc(C)c2)c2ccccc21	inconclusive: 25.1 µM [inhibitor, single point]	
COc1ccccc1-c1noc(-c2ccc(N3CCN(c4ccccc4)CC3)c([N+](=O)[O-])c2)n1		inactive: -16.3%
Cc1cccc(C(=O)N2CCc3cc(CNC(=O)CCc4ccccc4)ccc32)c1	inconclusive: 39.8 µM [inhibitor, single point]	
CCOCCOC(=O)c1ccc(NC(=O)/C=C/c2ccc(OC)c(OC)c2)cc1	inconclusive: 31.6 µM [inhibitor, single point]	
O=C(CSc1ncc2c(n1)-c1ccccc1N(Cc1ccc(F)cc1)S2(=O)=O)c1ccc(Cl)cc1		inactive: -16.2%
Cc1cccc(C)c1-n1ncc(C(=O)Nc2ccc3c(c2)OCCO3)c1C1CCN(C(=O)OC(C)(C)C)CC1	inconclusive: 15.8 µM [inhibitor, partial curve]	
COc1ccc(Nc2c(-c3cc(Br)ccc3O)nc3ncccn23)cc1OC	inconclusive: 12.6 µM [inhibitor, partial curve, poor fit]	
CC(C)Oc1ccc(CNC(=O)Cn2c(-c3cccs3)cc3ccccc32)cc1	inconclusive: 31.6 µM [inhibitor, partial curve, poor fit]	
CCS(=O)(=O)N1CCc2cc(C(=O)NCCc3ccc(OC)c(OC)c3)ccc21	inconclusive: 39.8 µM [inhibitor, single point]	

Compound	Potency	activity change, negative = inhibition
COc1cccc(C(=O)Nc2ccc(S(=O)(=O)N(Cc3ccccc3)c3ccccc3)cc2)c1	inconclusive: 8.91 µM [inhibitor, partial curve, poor fit]	
CC(=O)c1ccc(N2CCN(C(=O)C3CCN(S(=O)(=O)c4c(C)noc4/C=C/c4ccccc4F)CC3)CC2)cc1	inconclusive: 15.8 µM [inhibitor, partial curve, poor fit]	
Cc1cc(C)c(S(=O)(=O)NCCc2csc3nc(-c4ccc(Cl)cc4)nn23)c(C)c1	inconclusive: 28.2 µM [inhibitor, partial curve, poor fit]	
Cc1ccc(NC(=O)c2sc3ncnc(N(C)C4CCCCC4)c3c2C)cc1	inconclusive: 28.2 µM [inhibitor, partial curve, poor fit]	
Cc1ccc(C)c(N2CCN(c3nc4ccccc4c(=O)n3-c3ccccc3)CC2)c1	inconclusive: 31.6 µM [inhibitor, single point]	
CC(=O)Nc1ccc(S(=O)(=O)NCCS(=O)(=O)N2CCN(c3ccccc3F)CC2)cc1	inconclusive: 15.8 µM [inhibitor, partial curve, poor fit]	
CCCNC(=O)c1cnc2c(-c3ccc(OCC)c(OCC)c3)c(C)nn2c1-c1ccccc1	inconclusive: 14.1 µM [inhibitor, partial curve, poor fit]	
CCSc1nn(CC(=O)Nc2cccc(Cl)c2)c(N)c1S(=O)(=O)c1ccc(OC)cc1	inconclusive: 31.6 µM [inhibitor, partial curve, poor fit]	
COc1ccc(-c2nc(SCC(=O)Nc3ccc4c(c3)OCCO4)c(-c3ccccc3)[nH]2)cc1	inconclusive: 39.8 µM [inhibitor, single point]	
CC(C)CC(=O)Nc1nnc(S(=O)(=O)N2CCc3ccccc32)s1	inconclusive: 20 µM [inhibitor, single point]	
COc1ccccc1NS(=O)(=O)c1cc2c(cc1Cl)NC(=O)CO2	inconclusive: 14.1 µM [inhibitor, partial curve]	
O=C1CN(C(=O)Nc2ccccc2C(F)(F)F)C(c2ccccc2)c2c(sc3c2CCCC3)N1 (stereo unspecified)	inconclusive: 17.8 µM [inhibitor, partial curve]	
CN(C)S(=O)(=O)c1ccc(C(=O)Nc2ccc(-n3nncc3-c3ccccc3)cc2)cc1	inconclusive: 39.8 µM [inhibitor, single point]	
Cc1ccc(N(Cc2cccs2)C(=O)COc2cccc(C)c2)cc1	inconclusive: 31.6 µM [inhibitor, partial curve]	
COc1ccc(C2=NC(C)(C)N(CC(=O)Nc3ccc(F)c(F)c3)C2=O)cc1	inconclusive: 28.2 µM [inhibitor, single point]	
CCOC(=O)c1c(C)n(-c2ccccc2)c2ccc(OC(=O)c3ccccc3NC(=O)C(C)(C)C)cc12	inconclusive: 39.8 µM [inhibitor, single point]	
CCOc1ccc(CN2CCN(c3ncnc4sc5c(c34)CC(C)CC5)CC2)cc1 (stereo unspecified)	inconclusive: 0.251 µM [inhibitor, partial curve, poor fit]	
Cc1ccc(CNC(=O)C2CCN(S(=O)(=O)c3ccc4c(c3)CCCN4C(=O)C3CCC3)CC2)cc1	inconclusive: 35.5 µM [inhibitor, partial curve, poor fit]	
O=C(NCCSc1c(-c2ccccc2)[nH]c2ccccc12)c1ccc(S(=O)(=O)N2CCOCC2)cc1	inconclusive: 20 µM [inhibitor, partial curve]	

Compound	Potency	activity change, negative = inhibition
CCOc1ccc(S(=O)(=O)N(CC(=O)NCCc2ccc(OC)c(OC)c2)c2ccccc2)cc1	inconclusive: 39.8 µM [inhibitor, single point]	
Cc1c2oc3c(C)ccc(C(=O)NC4C(=O)NC(C(C)C)C(=O)N5CCCC5C(=O)N(C)CC(=O)N(C)C(C(C)C)C(=O)OC4C)c3nc-2c(C(=O)NC2C(=O)NC(C(C)C)C(=O)N3CCCC3C(=O)N(C)CC(=O)N(C)C(C(C)C)C(=O)OC2C)c(N)c1=O (stereo unspecified)		inactive: -40.5%
O=C1c2c(O)cccc2[C@@H]([C@@H]2O[C@H](CO)[C@@H](O)[C@H](O)[C@H]2O)c2cc(CO)cc(O)c21	inconclusive: 24.3 µM [inhibitor, partial curve, poor fit]	
Cc1ccc(Cl)cc1NC(=O)c1cnc(N2CCCCC2)c2ccccc12		inactive: -4.88%
COc1ccc(-c2nc3scc(CCNS(=O)(=O)c4ccc(C)cc4)n3n2)cc1	inconclusive: 31.6 µM [inhibitor, single point]	
CCCCCCCC/C=C/C(=O)O		inactive: -2.01%
COc1ccc(S(=O)(=O)N(CC(=O)Nc2ccccc2Br)Cc2ccccc2)cc1	inconclusive: 10 µM [inhibitor, partial curve, poor fit]	
CCc1ccc(CN(Cc2ccco2)c2cnc(S(C)(=O)=O)nc2C(=O)Nc2cccc(C)c2)cc1	inconclusive: 25.1 µM [inhibitor, partial curve, poor fit]	
CCC1=Nc2cc(C(=O)NCCCOC)ccc2Sc2ccc(Br)cc21	inconclusive: 3.98 µM [inhibitor, partial curve]	
CNC(=O)C1CCC(Cn2c(=O)c3sccc3n(CC(=O)NCc3ccccc3)c2=O)CC1 (stereo unspecified)		inactive: -5.68%
COCCCNC(=O)c1oc2c(c1C)-c1nn(Cc3ccccc3Cl)cc1CC2	inconclusive: 35.5 µM [inhibitor, single point]	
CCN1CCc2nc3sc(C(=O)Nc4cccc(Cl)c4C)c(N)c3cc2C1		inactive: -28.7%
CC1CCC(C(=O)NC(C(=O)OCC(=O)c2ccccc2)C(C)C)CC1 (stereo unspecified)	inconclusive: 20 µM [inhibitor, single point]	
COc1ccc(-c2ccc(NS(=O)(=O)c3ccc(OC)c(OC)c3)cc2)nn1	inconclusive: 14.1 µM [inhibitor, partial curve, poor fit]	
CCCCC(=O)N(c1ccc2oc(C)c(C(C)=O)c2c1)S(=O)(=O)c1ccc(F)cc1C		inactive: -40.8%
O=S(=O)(c1ccc(Br)cc1)c1nnn2c1nc(N1CCOCC1)c1sccc12		inactive: 7.1%
CSc1nc2sc3c(c2c(=O)n1Cc1ccccc1)CCC(C(C)(C)C)C3 (stereo unspecified)	inconclusive: 3.98 µM [inhibitor, partial curve, poor fit]	
O=C1CCCc2cc(S(=O)(=O)NCC3CCC(C(=O)NCc4ccc(F)cc4)CC3)ccc2N1 (stereo unspecified)	inconclusive: 28.2 µM [inhibitor, partial curve, poor fit]	
